Source: PMC4336329 (PLoS ONE, 2015)
The campaign covered roughly 310,000 compounds. About 2,200 (0.71%) showed an effect of 50% or more. Effects have a minus sign here. Some of the results follow.

target: human ether-à-go-go-related gene (hERG) potassium channel (human, UniProt Q12809); assay: primary screen, population patch clamp on CHO cells stably expressing hERG
Sequence (Q12809 whole entry, looked up): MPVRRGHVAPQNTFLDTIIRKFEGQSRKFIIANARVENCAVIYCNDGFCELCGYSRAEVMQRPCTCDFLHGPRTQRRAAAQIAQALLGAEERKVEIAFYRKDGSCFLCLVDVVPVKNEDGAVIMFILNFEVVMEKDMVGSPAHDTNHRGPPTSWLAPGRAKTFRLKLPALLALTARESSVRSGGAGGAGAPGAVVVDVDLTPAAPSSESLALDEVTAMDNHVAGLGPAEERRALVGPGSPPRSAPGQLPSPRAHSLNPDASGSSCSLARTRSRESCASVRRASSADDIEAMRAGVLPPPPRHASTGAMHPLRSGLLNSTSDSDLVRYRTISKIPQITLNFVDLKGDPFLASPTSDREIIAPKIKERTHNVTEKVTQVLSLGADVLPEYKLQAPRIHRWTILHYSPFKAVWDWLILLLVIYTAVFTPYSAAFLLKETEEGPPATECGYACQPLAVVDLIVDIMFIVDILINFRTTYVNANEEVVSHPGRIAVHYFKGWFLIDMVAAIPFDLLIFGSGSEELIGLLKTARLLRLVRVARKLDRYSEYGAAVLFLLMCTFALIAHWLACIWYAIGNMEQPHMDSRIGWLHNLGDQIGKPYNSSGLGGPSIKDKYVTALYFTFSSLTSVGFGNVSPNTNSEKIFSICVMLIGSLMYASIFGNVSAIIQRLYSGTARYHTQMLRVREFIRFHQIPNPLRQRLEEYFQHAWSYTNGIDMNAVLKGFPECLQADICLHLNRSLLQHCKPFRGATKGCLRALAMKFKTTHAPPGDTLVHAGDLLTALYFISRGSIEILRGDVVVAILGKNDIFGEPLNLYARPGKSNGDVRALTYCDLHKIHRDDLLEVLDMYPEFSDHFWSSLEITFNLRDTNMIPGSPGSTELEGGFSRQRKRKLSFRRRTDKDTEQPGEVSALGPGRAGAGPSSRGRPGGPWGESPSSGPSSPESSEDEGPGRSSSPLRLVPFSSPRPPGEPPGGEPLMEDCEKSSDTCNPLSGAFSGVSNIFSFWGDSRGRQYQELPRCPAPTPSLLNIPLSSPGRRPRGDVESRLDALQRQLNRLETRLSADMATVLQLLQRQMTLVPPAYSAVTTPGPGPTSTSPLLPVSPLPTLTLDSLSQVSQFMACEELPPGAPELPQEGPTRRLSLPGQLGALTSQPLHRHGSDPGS

In order of rising “hERG current change (%, negative = inhibition) at 1uM” value:
1. Cc1nc2c(C)cccc2c2c1CCN2c1ccccc1F  -25.2%
2. N#Cc1nc(-c2ccc(F)cc2)oc1NCCCn1ccnc1  -21.9%
3. O=C(c1ccc(-n2cccn2)cc1)N1CCN(c2ncccc2C(F)(F)F)CC1  -16.4%
4. CC(C(=O)Nc1ccc(C#N)cc1)N(C)Cc1cccs1 (centres unmarked)  -15.2%
5. O=C(NCc1ccc2c(c1)OCO2)C1CC(=O)N(CCc2ccc(F)cc2)C1 (centres unmarked)  -13.1%
6. Cc1ccc(SC(C)C(=O)Nc2ccc(S(=O)(=O)N3CCOCC3)cc2)cc1 (centres unmarked)  -12.1%
7. O=C1C(c2ccc(F)cc2)N(Cc2ccc3c(c2)OCO3)C(=O)CN1C1CCCCCC1 (centres unmarked)  -9.14%
8. COc1ccc(Oc2nc3ccccc3n(C)c2=O)cc1  -7.95%
9. CCCCn1c(N)c(N(CC(C)C)C(=O)c2ccc(-c3ccc([N+](=O)[O-])cc3)o2)c(=O)[nH]c1=O  -3.68%
10. COc1ccc(C2(C(=O)NCc3ccccc3Cl)CCOCC2)cc1OC  -2.52%
11. Cn1c(CNC(=O)c2ccco2)nnc1SCC(=O)Nc1cccc(Br)c1  -1.61%
12. COc1cccc(CN2CC(C(=O)NCCC3=CCCCC3)CCC2=O)c1 (centres unmarked)  -1.22%
13. Cc1csc(NC(=O)CCC(=O)c2cccs2)n1  -0.468%
14. Cc1ccc(N2C(=O)CN(Cc3cccs3)C2=S)cc1C  -0.433%
15. O=C1NC2(CCCCC2)C(=O)N1/N=C/c1ccc(O)cc1O  -0.395%
16. O=C(CN(c1ccc(F)cc1)S(=O)(=O)c1ccc2c(c1)OCCO2)Nc1ccccc1  0.422%
17. Cc1cc2c(c(=O)n1CCCn1ccnc1)C(c1ccco1)C(C#N)=C(N)O2 (centres unmarked)  1.32%
18. O=C(CCC(=O)OCC(=O)c1ccc(-c2ccccc2)cc1)Nc1cccc(Cl)c1  1.42%
19. COc1ccc(CCNCc2ccc(OC)c(OC)c2OC)cc1  1.48%
20. O=C(CSc1nccc(=O)[nH]1)Nc1ccc(N2CCOCC2)cc1  1.7%
21. CCC(=O)N1CCC(C(N)=O)(N2CCCCC2)CC1  1.73%
22. COc1ccccc1N1CCN(S(=O)(=O)CCNC(=O)C2CCCCC2)CC1  1.78%
23. CCc1cc2c(=O)c(-c3nc4ccccc4n3C)c(C)oc2c(CN(CC)CC)c1O  2.2%
24. O=C(Nc1nnc(C2CC2)s1)c1cccc(S(=O)(=O)N2CC(c3ccccc3)CC2=O)c1 (centres unmarked)  2.33%
25. C/C(=N\NC(=O)c1cc(-c2ccccn2)nc2ccccc12)c1cccc([N+](=O)[O-])c1  2.45%
26. CCOC(=O)/C=C1\CN(Cc2cc(OC)c(OC)c(OC)c2)S(=O)(=O)c2ccc(C(F)(F)F)cc21  3.43%
27. O=C(NCc1ccc2c(c1)OCO2)C1CC(=O)N(C2CCCCCC2)C1 (centres unmarked)  3.61%
28. CCC1(C)Cc2c(sc3nc(SCC(=O)c4ccccc4)[nH]c(=O)c23)CO1 (centres unmarked)  4.26%
29. CNc1nc(SC)nc(N(C)C#N)n1  4.83%
30. O=C(OCc1cc2ccccc2[nH]c1=O)C1CCCCC1  5.48%
31. COC(=O)c1ccc(NC(=O)CN2CCN(c3cccc(Cl)c3)CC2)cc1  5.72%
32. CC(NS(=O)(=O)c1ccccc1)C(=O)NCCc1ccccn1 (centres unmarked)  5.82%
33. O=C(Cc1n[nH]c(=O)c2ccccc12)Nc1cccc(S(=O)(=O)N2CCCC2)c1  5.91%
34. CC(=O)N(CCC(Cc1ccccc1)c1ccc2c(c1)OCO2)Cc1ccc(Cl)cc1 (centres unmarked)  6.14%
35. Cc1cc(C(=O)N/N=C/c2ccc(OC(=O)c3ccccc3Br)cc2)n[nH]1  6.26%
36. COc1ccccc1C(=O)Nc1ccc2c(c1)OCO2  6.37%
37. O=S(=O)(c1ccc(F)cc1)N1CCCC1c1cccnc1 (centres unmarked)  6.46%
38. Nc1nc(C(F)(F)F)cc(=O)n1N  6.55%
39. CC(C)(C)OC(=O)NCCCC[C@@H](C(=O)N1CCN(C(=O)OC(C)(C)C)CC1)n1cc(CCC(=O)O)nn1  7.72%
40. Cc1ccc(NC(=O)COc2coc(CN3CCc4ccccc4C3)cc2=O)cc1Cl  7.76%
41. COC(=O)C1=C(C(=O)OC)[C@@H]2N(C)c3ccc(OC)cc3[C@@]23C[C@@H](C(=O)OC)N(C(=O)CC(C)C)C3=N1  7.86%
42. O=C1C(C=Nc2ccccc2O)=C(O)c2ccccc21  8.45%
43. Cc1nn(C)cc1CNCc1ccc(OCC(O)CN(C)Cc2ccccc2)cc1 (centres unmarked)  8.6%
44. COc1ccc(C(=O)CSc2nc3cccnc3n2C)cc1  8.75%
45. O=S(=O)(Nc1cccc(CCc2ccccn2)c1)c1cc(Cl)ccc1Cl  9.34%
46. CCOC(=O)C1=C(c2ccccc2)NC(=S)NC1c1ccc(Cl)cc1 (centres unmarked)  9.49%
47. CCC(C)NC(=O)c1ccccc1NC(=O)C1COc2ccccc2O1 (centres unmarked)  9.55%
48. CC(=O)C1=NN(c2ccccc2)C(c2ccc3c(c2)OCO3)N1c1ccccc1 (centres unmarked)  9.59%
49. CC(OC(=O)C1=COCCO1)C(=O)Nc1ccccc1C#N (centres unmarked)  10.1%
50. COc1ccc(OC)c(S(=O)(=O)N2CCC(C(=O)NCCc3ccc(OC)c(OC)c3)CC2)c1  10.5%
51. COc1cccc(C(=O)OCC(=O)Nc2sc3c(c2C(N)=O)CCC3)c1O  10.7%
52. COc1ccccc1NC(=O)CC12CC3CC(CC(Br)(C3)C1)C2  10.8%
53. CC(=O)NCc1ccc(C(=O)COC(=O)COc2ccccc2)s1  10.8%
54. Nc1c(C(=O)Nc2ccccc2)c2nc3ccccc3nc2n1-c1ccc(O)cc1  10.8%
55. Cc1ccsc1C(=O)Nc1ccc(F)c([N+](=O)[O-])c1  10.9%
56. CC(=O)Nc1ccc(OCC(O)Cn2c(CO)nc3ccccc32)cc1 (centres unmarked)  10.9%
57. CCc1cc(C(=O)OC)c(NC(=O)CC2Nc3cc(C)c(C)cc3NC2=O)s1 (centres unmarked)  11%
58. Cc1ccc(S(=O)(=O)N(C)C)cc1NC(=S)NC(=O)C12CC3CC(CC(C3)C1)C2  11.1%
59. CCN(CC)S(=O)(=O)c1cccc(NC(=O)CSc2nnc(N)s2)c1  11.4%
60. Cc1cccc(C(=O)NCCNC(=O)c2cnccn2)c1  11.9%
61. COc1cccc(CNC(=O)c2cc(S(=O)(=O)N3CCCCC3)c[nH]2)c1  11.9%
62. O=C1Nc2c(Br)cc(Br)cc2C1(O)N1CCOCC1 (centres unmarked)  12.2%
63. C(=C\n1nnc2ccccc21)/c1ccccn1  12.3%
64. Cc1ccc(Nc2c(-c3ccc(N4CCOCC4)cc3)nc3ncccn23)cc1C  12.6%
65. COc1ccccc1Cn1c(=S)[nH]c2cc(C(=O)NCc3cccnc3)ccc2c1=O  12.9%
66. O=[N+]([O-])c1ccc(-c2nc(Nc3ccc(O)cc3)c3ccccc3n2)cc1  13%
67. CC1S/C(=N/N=C/c2ccco2)N(Cc2ccccc2)C1=O (centres unmarked)  13.1%
68. Cc1cc(NS(=O)(=O)c2ccc(N3C(=O)C4C5C=CC(C5)C4C3=O)cc2)nc(C)n1 (centres unmarked)  13.3%
69. COC(=O)c1ccc(N2CCN(CCNC(=O)Nc3ccc(OC)cc3)CC2)cc1  13.4%
70. C=CCNC(=O)C1CCN(c2c([N+](=O)[O-])cc(C(F)(F)F)cc2[N+](=O)[O-])CC1  13.4%
71. COc1ccc(N2C(=O)CC(Sc3nc(C)cc(C)n3)C2=O)cc1OC (centres unmarked)  13.5%
72. COc1ccc(C2CC(c3ccccc3)=NN2c2ccc(S(N)(=O)=O)cc2)cc1 (centres unmarked)  13.9%
73. Cc1c(Cl)cccc1NC(=O)CCC(=O)c1cccs1  14.1%
74. C=C1C(=O)C=C2CN(C(=O)c3ccccc3)[C@@](Cc3ccc(F)cc3)(C(=O)OC)[C@@H]12  14.2%
75. COc1cc(CN2CCNC(=O)C2CC(=O)N2CCCN(C(C)=O)CC2)cc(OC)c1 (centres unmarked)  14.3%
76. CNCCCOc1ccc(C)cc1OC.O=C(O)C(=O)O  14.4%
77. Cc1cc2ncn(C(=O)N3CCOCC3)c2cc1C  14.7%
78. COC(=O)COc1cccc(NS(=O)(=O)c2ccc(NC(C)=O)cc2)c1  14.8%
79. c1ccc(-c2noc(COc3ccc4c(c3)OCO4)n2)cc1  14.9%
80. O=[N+]([O-])c1ccccc1/C=C/C=N/n1c(-c2ccco2)n[nH]c1=S  15.5%
81. Cc1cc(C)c(OCCNCc2ccccc2)c(C)c1.O=C(O)C(=O)O  16.1%
82. Cc1ccc(N2C(=O)N3[C@H]4c5ccccc5OC[C@@H]4[C@@H](c4ccccc4)[C@@]3(C)C2=O)cc1  16.3%
83. COc1cc(/C=C/C(=O)c2ccc([N+](=O)[O-])o2)ccc1O  16.4%
84. Cc1sc(/N=C/c2c(O)ccc3ccccc23)c(C#N)c1C  17.9%
85. Cc1c(C(=O)O)oc2ccc(S(=O)(=O)N3CCCC3)cc12  22.9%
86. COc1ccc(NC(=S)NCCN2CCC(C)CC2)cc1Cl  25.3%
